{"source": "the supplement of paper PMC3334620", "note": "The full ranking holds about 33,000 sequences; the median of “E-score (-0.5 to 0.5)” is about -0.04, and the highest 2% start at about 0.36. The list shows a part of the results."}
{"molecular_target": "T1, Hmlalpha2 (UniProt P0CY09)", "T1 sequence": "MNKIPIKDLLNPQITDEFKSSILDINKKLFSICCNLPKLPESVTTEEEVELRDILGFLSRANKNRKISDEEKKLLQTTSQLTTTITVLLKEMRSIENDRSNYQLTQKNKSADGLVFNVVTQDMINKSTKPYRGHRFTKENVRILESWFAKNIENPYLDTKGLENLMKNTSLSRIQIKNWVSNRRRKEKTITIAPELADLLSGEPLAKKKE", "test": "PBM E-score (8-mer binding enrichment) (E-score (-0.5 to 0.5)); higher = stronger / more preferred TF binding; most listed sequences are background and not binding sites", "conditions": "protein concentration: 200 nM; construct: GST-full length", "summary_of_the_method": "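Full-length yeast transcription factors or their DNA-binding domains, GST-tagged and expressed with PURExpress, were applied at about 100-200 nM to universal all-10-mer Agilent arrays. These arrays had been made double-stranded by primer extension on fresh or once-stripped slides. Detection used fluorescent anti-GST, normalisation used masliner, and E-scores for ungapped eight-base words pooled with reverse complements came from the Universal PBM Analysis Suite.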"}
{"sequence": "AACTGGGA", "PBM E-score": -0.0704}
{"sequence": "AGAGGGTC", "PBM E-score": -0.282}
{"sequence": "AGGGAAAA", "PBM E-score": 0.00608}
{"sequence": "AAAAAGGG", "PBM E-score": -0.139}
{"sequence": "CTGCATTC", "PBM E-score": -0.0597}
{"sequence": "CAACACAC", "PBM E-score": 0.349}
{"sequence": "AAGTCGTC", "PBM E-score": -0.093}
{"sequence": "TACCCCTA", "PBM E-score": -0.126}
{"sequence": "AGCCGTTC", "PBM E-score": -0.338}
{"sequence": "TAGATCTA", "PBM E-score": 0.0766}
{"sequence": "ATATCAAA", "PBM E-score": -0.0263}
{"sequence": "GGTCGGAC", "PBM E-score": -0.195}
{"sequence": "CGCAAGCG", "PBM E-score": -0.175}
{"sequence": "AGTGTAGA", "PBM E-score": 0.171}
{"sequence": "CGCAGGGA", "PBM E-score": -0.215}
{"sequence": "CAGGCCTG", "PBM E-score": -0.104}
{"sequence": "ACTCGATG", "PBM E-score": 0.138}
{"sequence": "CCTCAGGA", "PBM E-score": -0.333}
{"sequence": "ACTGGGTG", "PBM E-score": -0.255}
{"sequence": "GCTCGCAA", "PBM E-score": -0.0517}
{"sequence": "AAAACCCA", "PBM E-score": 0.133}
{"sequence": "CCTTCTGA", "PBM E-score": -0.234}
{"sequence": "ATCTAGAA", "PBM E-score": 0.0729}
{"sequence": "ACTCTTTC", "PBM E-score": -0.18}
{"sequence": "ATGATAAA", "PBM E-score": 0.192}
{"sequence": "CCTAATAA", "PBM E-score": 0.00353}
{"sequence": "CTTCGTAA", "PBM E-score": 0.177}
{"sequence": "CATCTAGG", "PBM E-score": -0.199}
{"sequence": "ATATACGG", "PBM E-score": 0.147}
{"sequence": "CCCCAAAA", "PBM E-score": -0.0809}
{"sequence": "ATAAGCCC", "PBM E-score": -0.241}
{"sequence": "GGATACGA", "PBM E-score": 0.00133}
{"sequence": "ACCAAGGT", "PBM E-score": -0.0823}
{"sequence": "TCTGTAAA", "PBM E-score": 0.278}
{"sequence": "ACCATCCT", "PBM E-score": 0.0751}
{"sequence": "AAATATCG", "PBM E-score": 0.0929}
{"sequence": "CGCTGGGA", "PBM E-score": -0.216}
{"sequence": "AGTGTTGG", "PBM E-score": 0.0228}
{"sequence": "CAACTACG", "PBM E-score": 0.12}
{"sequence": "CGAGTACG", "PBM E-score": 0.0847}
{"sequence": "CGTTGTTA", "PBM E-score": 0.259}
{"sequence": "GAGGCGCC", "PBM E-score": -0.28}
{"sequence": "TAGGAAGA", "PBM E-score": -0.162}
{"sequence": "CACCCCAC", "PBM E-score": -0.241}
{"sequence": "CGCACGCA", "PBM E-score": 0.0912}
{"sequence": "GTATTTCA", "PBM E-score": 0.245}
{"sequence": "CAGGGACA", "PBM E-score": 0.0284}
{"sequence": "AGCTCGGA", "PBM E-score": -0.319}
{"sequence": "ACGGATTC", "PBM E-score": -0.00996}
{"sequence": "TATGCGGA", "PBM E-score": -0.128}
{"sequence": "AAGTCTCT", "PBM E-score": -0.161}
{"sequence": "AGACGGGC", "PBM E-score": -0.192}
{"sequence": "ATCTACAG", "PBM E-score": 0.151}
{"sequence": "GAGCTCAC", "PBM E-score": -0.325}
{"sequence": "CAATGTGA", "PBM E-score": 0.224}
{"sequence": "GCTGGCCA", "PBM E-score": -0.178}
{"sequence": "CCTACTTA", "PBM E-score": -0.0102}
{"sequence": "ACAGACAA", "PBM E-score": 0.244}
{"sequence": "CACGGGCG", "PBM E-score": -0.0985}
{"sequence": "CTAGGGTC", "PBM E-score": -0.156}
{"sequence": "CAGACACA", "PBM E-score": 0.035}
{"sequence": "AGTTGCTA", "PBM E-score": 0.169}
{"sequence": "AGGCACAG", "PBM E-score": -0.131}
{"sequence": "ATCGGTAA", "PBM E-score": 0.0421}
{"sequence": "AGCCTTGA", "PBM E-score": -0.0407}
{"sequence": "CGAATAAA", "PBM E-score": 0.0121}
{"sequence": "CGAGGCAA", "PBM E-score": 0.126}
{"sequence": "TCACTCGA", "PBM E-score": -0.0745}
{"sequence": "AACAGCGT", "PBM E-score": 0.171}
{"sequence": "CAAACCCC", "PBM E-score": -0.17}
{"sequence": "CGTGACGC", "PBM E-score": 0.0519}
{"sequence": "AATCAGCT", "PBM E-score": 0.0644}
{"sequence": "GAATAAGC", "PBM E-score": -0.0806}
{"sequence": "ACAAAGAA", "PBM E-score": 0.251}
{"sequence": "GATAATGC", "PBM E-score": 0.0782}
{"sequence": "ATTAACTG", "PBM E-score": 0.134}
{"sequence": "GATCGGAA", "PBM E-score": -0.134}
{"sequence": "GTCTCCTA", "PBM E-score": -0.125}
{"sequence": "TGCTAGAA", "PBM E-score": 0.0692}
{"sequence": "CTGAGGCC", "PBM E-score": -0.236}
{"sequence": "GGATGTAC", "PBM E-score": 0.225}
{"sequence": "AAGATTCT", "PBM E-score": -0.0883}
{"sequence": "GTTCACGA", "PBM E-score": 0.0957}
{"sequence": "CTCTACAG", "PBM E-score": 0.0676}
{"sequence": "CAGTTCTA", "PBM E-score": 0.0395}
{"sequence": "ATAGCTAA", "PBM E-score": -0.129}
{"sequence": "ATGGCTAA", "PBM E-score": 0.0205}
{"sequence": "AAACGCGG", "PBM E-score": 0.171}
{"sequence": "ATCTCCCG", "PBM E-score": -0.157}
{"sequence": "CGTTAGTC", "PBM E-score": -0.0428}
{"sequence": "ACTAGGAA", "PBM E-score": -0.201}
{"sequence": "ATCGAATC", "PBM E-score": -0.0003}
{"sequence": "GCAAATGC", "PBM E-score": -0.12}
{"sequence": "CCGCCGAC", "PBM E-score": -0.0741}
{"sequence": "CGGACGTA", "PBM E-score": 0.0834}
{"sequence": "AATTAGGT", "PBM E-score": 0.0936}
{"sequence": "AGCGACCA", "PBM E-score": -0.105}
{"sequence": "ATTAAGCC", "PBM E-score": -0.183}
{"sequence": "CTCTGAAA", "PBM E-score": -0.154}
{"sequence": "CATCTATA", "PBM E-score": -0.136}
{"sequence": "GAGCAGTA", "PBM E-score": 0.0651}
{"sequence": "CCGCCCGG", "PBM E-score": -0.273}
{"sequence": "AATTATGC", "PBM E-score": 0.02}
{"sequence": "GCCTCAGC", "PBM E-score": -0.244}
{"sequence": "CTCGTGTC", "PBM E-score": 0.257}
{"sequence": "CTACTTTA", "PBM E-score": 0.146}
{"sequence": "AGCCAGCA", "PBM E-score": -0.236}
{"sequence": "TGAGTCAA", "PBM E-score": 0.17}
{"sequence": "AACGGTAC", "PBM E-score": -0.00027}
{"sequence": "AATGATCA", "PBM E-score": 0.0844}
{"sequence": "GCATTCGC", "PBM E-score": -0.124}
{"sequence": "ATTGGCTC", "PBM E-score": -0.0268}
{"sequence": "ATCGGGGG", "PBM E-score": -0.434}
{"sequence": "CGAAGGTC", "PBM E-score": -0.346}
{"sequence": "ACGCCCTC", "PBM E-score": -0.0261}
{"sequence": "GCGAAAGA", "PBM E-score": -0.0935}
{"sequence": "AGCGAAAT", "PBM E-score": -0.0407}
{"sequence": "GAATACAA", "PBM E-score": 0.352}
{"sequence": "GACAAAAA", "PBM E-score": 0.0289}
{"sequence": "CGTTGCGC", "PBM E-score": -0.00136}
{"sequence": "ATGAATTA", "PBM E-score": 0.178}
{"sequence": "CCTACGTC", "PBM E-score": -0.133}
{"sequence": "ATCAGTCG", "PBM E-score": 0.0621}
{"sequence": "CATTAACC", "PBM E-score": 0.128}
{"sequence": "ACTGTTCT", "PBM E-score": -0.0672}
{"sequence": "ATTCACTC", "PBM E-score": 0.145}
{"sequence": "AAAACCAA", "PBM E-score": 0.147}
{"sequence": "CATTCCCG", "PBM E-score": -0.19}
{"sequence": "GGGGAGTA", "PBM E-score": -0.225}
{"sequence": "ATACTTGG", "PBM E-score": -0.152}
{"sequence": "ATCTATGG", "PBM E-score": -0.335}
{"sequence": "AATGGGTG", "PBM E-score": -0.0978}
{"sequence": "ACGAGACA", "PBM E-score": -0.0493}
{"sequence": "AAAGGCCG", "PBM E-score": -0.212}
{"sequence": "GTGTCAAA", "PBM E-score": 0.382}
{"sequence": "GGCAGTAC", "PBM E-score": 0.0805}
{"sequence": "CCATTGGG", "PBM E-score": -0.227}
{"sequence": "ATTTCAAG", "PBM E-score": 0.099}
{"sequence": "GCCGGTAC", "PBM E-score": -0.0163}
{"sequence": "AAGAGAGA", "PBM E-score": -0.0152}
{"sequence": "GCGCATCC", "PBM E-score": -0.0678}
{"sequence": "GTATACAA", "PBM E-score": 0.291}
{"sequence": "CAGTACAA", "PBM E-score": 0.127}
{"sequence": "AAAAGCTT", "PBM E-score": 0.115}
{"sequence": "ACATGTCC", "PBM E-score": 0.351}
{"sequence": "AATCTCAC", "PBM E-score": -0.104}
{"sequence": "GTACGGGA", "PBM E-score": -0.121}
{"sequence": "CAGTGATA", "PBM E-score": -0.0336}
{"sequence": "AATTCCAG", "PBM E-score": 0.0676}
{"sequence": "AATTTAAG", "PBM E-score": 0.0542}
{"sequence": "CATCCTCA", "PBM E-score": -0.0355}
{"sequence": "CTGCTCAC", "PBM E-score": -0.0448}
{"sequence": "CTGTCAAC", "PBM E-score": 0.198}
{"sequence": "GAACTGTA", "PBM E-score": 0.112}
{"sequence": "GGCATCAA", "PBM E-score": -0.165}
{"sequence": "CAAATAGG", "PBM E-score": -0.00423}
{"sequence": "CCATCACG", "PBM E-score": 0.00264}
{"sequence": "GTAGTGCA", "PBM E-score": 0.0993}
{"sequence": "ACACGACC", "PBM E-score": 0.396}
{"sequence": "AGACTTGG", "PBM E-score": -0.207}
{"sequence": "CATCTCGA", "PBM E-score": -0.0276}
{"sequence": "CCGGCCTC", "PBM E-score": -0.221}
{"sequence": "GCCGGTAA", "PBM E-score": 0.0399}
{"sequence": "ATAGTTCC", "PBM E-score": -0.0756}
{"sequence": "AACTAACT", "PBM E-score": -0.0445}
{"sequence": "CAAATTCG", "PBM E-score": -0.179}
{"sequence": "GCAGAACC", "PBM E-score": -0.038}
{"sequence": "TCAAAAGA", "PBM E-score": -0.133}
{"sequence": "ACCTGCGA", "PBM E-score": -0.062}
{"sequence": "AATTTGTA", "PBM E-score": 0.258}
{"sequence": "TAGCTCGA", "PBM E-score": -0.0496}
{"sequence": "CCTTCTGC", "PBM E-score": -0.354}
